From PubChem BioAssay AID1508623 (National Center for Advancing Translational Sciences (NCATS), 2021)
Hit rate of the full screen: of about 48,000 compounds, about 450 (0.94%) were called active. About 19% were inconclusive and are not listed. The call rests on the fitted dose curve; in most records, active means well fitted inhibition curve with a large enough effect; inconclusive means small, poorly fitted or top-dose-only effect; inactive means no such curve, though single readings can be large or run the other way. Some of the results follow.

Test: Primary qHTS for Identification of Small Molecule Inhibitors of Huntingtin Promoter Activity; further: nearly all actives have a fitted effect of over 50% in size
Conditions: HEK293 HTT promoter firefly luciferase reporter (activity 0% = vehicle and -100% = no light), 24 h; series mostly up to 57.5 µM; activity change, negative = inhibition: at the top concentration
Procedure, shortened: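 Quantitative HTS used concentration series of up to 57.5 uM final on HEK293 luciferase reporter cells, 24 h at 37 degrees C. Readout was Dual-Glo firefly luminescence.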

Activity change, negative = inhibition, inactive:
CCOC(=O)c1cccc(NC(=O)c2oc3c(c2C)-c2[nH]ncc2CC3)c1 42.2%, Nc1ccn([C@@H]2O[C@H](CO)[C@@H](O)C2O)c(=O)n1 (some centres undefined) -3.52%, CCc1ccccc1NS(=O)(=O)c1ccc2[nH]cc(C(=O)N3CCCCC3)c(=O)c2c1 1.82%, COc1cc(CN(C(=O)Nc2ccccc2)c2ccccn2)cc(OC)c1OC 0.975%, CC(C)CCNC(=O)c1cccc(Nc2nc3ccccc3n3nnnc23)c1 -11.7%, CCCC(=O)Nc1cc(C)c(O)c(-c2nc3ncccc3o2)c1 -10.5%, Cc1cc(NC(=O)c2ccc(Br)o2)cc(-c2nc3ccccc3o2)c1O -11.7%, CCCCNC(=O)C1CCCN(Cc2nc(-c3ccc(Cl)cc3)oc2C)C1 (centres undefined) -0.283%, COc1ccc(NC(=O)C(NS(=O)(=O)c2ccc3c(c2)CCCC(=O)N3)C(C)C)c(OC)c1 (centres undefined) -22%, Cc1cc(C)c(NC(=O)CSc2ccnc(=O)[nH]2)c(C)c1 -6.7%, Cc1c(Cl)cccc1NC(=O)CSc1ncnc2c1sc1ccccc12 7.35%, Cc1cccc(CNC(=O)c2oc3c(c2C)-c2nn(Cc4ccccc4Cl)cc2CC3)c1 -28.6%, Cc1cc(OCC(=O)Nc2ccc(-c3nc4cc(Cl)ccc4o3)cc2)cc(C)c1Cl 21.2%, NS(=O)(=O)c1ccc(CCNC(=O)C2COc3ccccc3C2)cc1 (centres undefined) -14%, CCc1ccc(C2CC(=O)c3c([nH]c(C(=O)OCC4CCCCC4)c3C)C2)cc1 (centres undefined) -0.592%, Cc1ccc(-n2ncc3c(N4CCCCCC4)ncnc32)cc1 -90.3%, c1ccc(-n2ncc3c(NC4CCCC4)ncnc32)cc1 28.5%, COc1ccc(NS(=O)(=O)c2cc3[nH]c(=O)c(=O)[nH]c3cc2C)cc1Cl 3.8%, CCC(=O)N1CCc2cc(Br)cc(S(=O)(=O)CCC(=O)NCCc3ccc(OC)c(OC)c3)c21 2.27%, CCOc1ccc(/C=C/c2nc(C#N)c(N3CCN(c4ccc(OC)cc4)CC3)o2)cc1 -2.42%, Cn1cc(S(=O)(=O)N2CCCCCC2)cc1C(=O)N1CCN(c2ccc(F)cc2)CC1 -26.6%, Cc1ccc(NC(=O)Cc2c(C(=O)O)c(C)cn2C)cc1Cl 4.06%, CC(C)OCCCn1c(SCc2ccccc2C#N)nc2c(sc3ccccc32)c1=O -13.2%, CCN(CC)CC(C)CNC(=O)CN1C(=O)CSc2ccc(S(=O)(=O)N3CCOCC3)cc21 (centres undefined) -10.8%, CCN(CC)CCOc1ccc2c(c1)C(=O)c1cc(OCCN(CC)CC)ccc1-2 0.875%, COc1cc(OC)c(NC(=O)CN2C(=O)CCn3nc(-c4cccn4C)cc32)cc1Cl 0%, NS(=O)(=O)c1ccc(NC(=O)CSc2ccc3ccccc3n2)cc1 -23.2%, Cc1ccc(S(=O)(=O)c2cn(CC(=O)Nc3cccc(C)c3)c3cc4c(cc3c2=O)OCO4)cc1 -10.6%, CC1CCC(C(=O)NC(C(=O)OCC(=O)c2ccc(Br)cc2)C(C)C)CC1 (centres undefined) -25.6%, Cc1ccc(CNS(=O)(=O)c2cc3c(cc2Cl)NC(=O)CO3)o1 2.87%, Cc1ccc(/C=C/c2onc(C)c2S(=O)(=O)N2CCC(C(=O)Nc3ccc(Br)c(C)c3)CC2)cc1 -8.26%, CCC(CC)C(=O)Nc1cc(-c2ccccc2F)nn1-c1ccccc1 -15%, CNS(=O)(=O)c1cn(CC(=O)Nc2ccc(OC)cc2OC)cc1S(=O)(=O)NC 9.2%, Cc1ccccc1/C=C(\C#N)c1nc(-c2ccc(Cl)cc2)cs1 27.9%, Cc1csc2nc(-c3ccc(NS(=O)(=O)c4cc(F)ccc4F)cc3)cn12 -21.1%, Cc1ccc(CNC(=O)c2nnc(Cc3ccc(Cl)cc3)o2)cc1 -1.78%, CN(C(=O)c1ccc2c(Cl)c3c(nc2c1)CCC3)c1ccccc1F 12.9%, COc1ccccc1C(=O)Nc1ccc(C(=O)OCc2cc(=O)n3nc(C)sc3n2)cc1 -2.7%, CCN(CC)C(=O)Cn1c(=O)n(-c2ccccc2)c(=O)c2c3c(sc21)CCC3 0%, Cc1ccc(NC(=O)Cn2c(-c3cncs3)nc3ccccc32)c(Br)c1 -10.4%, Cc1ccc(CNC(=O)CN2C(=O)C3(SCC(=O)N3c3ccc(F)cc3)c3ccccc32)cc1 (centres undefined) -10.8%, CC(=O)N1CCc2c(sc3c2c(=O)n(Cc2ccccc2)c(=O)n3Cc2cc(C)ccc2C)C1 -0.751%, CC1CN(C(=O)N2CCC(C(=O)NCCCc3ccccc3)CC2)c2ccccc2O1 (centres undefined) -29.8%, CCOc1ccc(Nc2oc(/C=C/c3cccc(OC)c3)nc2C#N)cc1 -5.15%, CCCCCn1c(CCNC(=O)c2cccc(C)c2)nc2ccccc21 -29.6%, CCc1ccc(CNC(=O)C2CCCN(S(=O)(=O)c3ccc4c(ccn4C)c3)C2)cc1 (centres undefined) 0%, COc1ccc(CNC(=O)CCc2nc(-c3ccc(OC)cc3)no2)cc1 13.5%, Cc1cc(C)c2c(n1)sc1c(=O)n(-c3ccccc3C(F)(F)F)nnc12 -2.3%, CCC(=O)N1CCc2cc(CNS(=O)(=O)c3cccs3)ccc21 33.8%, CCCCOc1ccc(CNC(=O)c2ccc3c(c2)N(C)C(=O)C2CCCCN32)cc1 (centres undefined) -28.5%, Cc1ccc(OCCSc2nc3ccc(NC(=O)c4ccc(F)cc4)cc3s2)cc1 -3.85%, CCOC(=O)C(CC)Sc1c(CC)cnc2c1c(=O)n(C)c(=O)n2C (centres undefined) -15.7%, Cc1ccc(Cc2cn3cc(-c4ccc(F)cc4)nc3s2)cc1 17.7%, COc1ccc(-c2c(C)c3ccc(O)c(CN4CCCC4)c3oc2=O)cc1OC -0.185%, COc1cccc(-c2cn3ncsc3n2)c1 57.7%, Cc1ccccc1CSc1ccc(-c2cccs2)nn1 1.64%, CN1CCC(=C2c3ccccc3Sc3ccccc32)CC1 -1.67%, Cc1cc(C)n(-c2nc(C)c(C)c(=O)n2CC(=O)Nc2ccc(OC(F)(F)F)cc2)n1 -21.6%, Cc1cccc(NC(=O)c2cc(S(=O)(=O)N3CCCCCC3)cn2C)c1C -17.6%, Cc1ccc(NC(=O)Cn2cc(C(=O)C3CC3)c3ccccc32)cc1C 4.21%, Cc1ccc(CNC(=O)c2ccc(Cn3c(=O)c4ccccc4n(CC(=O)Nc4c(C)cc(C)cc4C)c3=O)cc2)cc1 -3.84%, O=C(NCC(c1cccs1)S(=O)(=O)c1cccs1)c1cccc(F)c1 (centres undefined) -26.3%, c1cnc(N2CCN(c3ncc4c(n3)CCNC4)CC2)nc1 2.03%, COc1ccc(OC)c(-n2nnc(-c3nc(-c4cc(OC)c(OC)c(OC)c4)no3)c2C)c1 2.58%, COc1ccc(-c2nc3ccccc3n3c(-c4ccccc4)c4c(=O)n(C)c(=O)n(C)c4c23)cc1OC -5.62%, O=c1oc2c3c(ccc2c2ccccc12)OCN(Cc1ccc(Cl)cc1)C3 -12%, O=C(NCc1ccccc1)c1cccn1-c1nnc(N2CCCC2)s1 -10.9%, CC(=O)N1c2ccccc2C(C)(c2ccc(C)cc2)CC1(C)C (centres undefined) -11.3%, O=C(O)C=Cc1ccc(O)c(O)c1 -3.87%, COCCn1c(=O)[nH]c2cc(C(=O)N3CCN(c4ccccc4)CC3)ccc2c1=O -9.39%, CC(=O)N1CCc2cc(S(=O)(=O)NC(Cc3ccccc3)C(=O)Nc3cc(C)ccc3C)ccc21 (centres undefined) -8.52%, CCOc1ccc(CNC(=O)c2nn(-c3ccc(OC)cc3)c(=O)c3c2c2ccccc2n3C)cc1 -6.67%, NC(=O)CSc1ncc2c(n1)-c1ccccc1N(Cc1ccc(F)cc1)S2(=O)=O -15.4%, CCOc1ccc(C(=O)Nc2ccc3nc(SCC(=O)N4CCc5ccccc54)sc3c2)cc1 -7.79%, Cc1ccc(-c2ccc(CCC(=O)O)n2-c2ccc(C(N)=O)cc2)cc1 -10.5%, COc1ccc(-c2n[nH]c3c2cnc2ccc(F)cc23)cc1 21.8%, COc1ccc(-c2cc3ccc(O)c(CN4CCCC4)c3oc2=O)cc1 32%, Cc1ccc(-c2c(C(=O)NCCc3ccccc3)oc(=O)c3ccccc23)cc1 -28.4%, COc1ccccc1NC(=O)c1cnc(SCC(=O)N2CCOCC2)n(C)c1=O 31.3%, COc1ccc2c(c1)c1c(c(=O)n(Cc3ccccc3)c(=O)n1Cc1cccc(Cl)c1)n2C -10.7%, Cc1cc(C)c2oc(-c3ccc(Cl)c(NC(=O)c4cccs4)c3)nc2c1 -1.21%, CCn1cc(C(=O)NCCCOC)c(=O)c2cc(S(=O)(=O)N3CCc4ccccc4C3)ccc21 -9.63%, CCOC(=O)C1CCCN(CC(=O)Nc2cc(C)c3c(=O)oc4ccccc4c3n2)C1 (centres undefined) -0.467%, Cc1cc(C)cc(NC(=O)C2CCN(S(=O)(=O)c3cn(C)cn3)CC2)c1 -1.42%, O=c1oc2ccc3ccccc3c2cc1-c1nnc(Nc2ccccc2F)s1 4.52%, Cc1ccc(=O)n(-c2ccccc2)c1 7.78%, Cc1cc2c(cc1NS(=O)(=O)c1cccc(C#N)c1)n(C)c(=O)c(=O)n2C -7.94%, CCc1cccc(C)c1NC(=O)Cn1nnc(-c2nc(-c3ccccc3F)no2)c1N -5.37%, COc1ccc(NS(=O)(=O)c2cc3c(cc2C)N(C(C)=O)CCO3)cc1 -7.42%, Cn1cc(S(=O)(=O)N2CCCCCC2)cc1C(=O)Nc1ccc(Cl)c(C(F)(F)F)c1 -8.07%, Cc1ccc(C(C)C)c(OCC(O)CN2CCN(c3ccccc3F)CC2)c1 (centres undefined) -21.3%, Cc1cccc(NC(=O)CSc2nc(-c3ccccc3)cc(=O)[nH]2)c1C -13.1%, Cc1ccc(NC(=O)CCC(=O)N2Cc3ccccc3Oc3ncccc32)c(C)c1 -10.2%, CCOc1ccc(CCNC(=O)CN2C(=O)COc3ccc(S(=O)(=O)N4CCCC4)cc32)cc1 -25.5%, Cc1cc(CN2CCN(c3c(Br)cnc4nc(-c5ccc(N6CCN(C)CC6)cc5)[nH]c34)CC2)no1 -2.71%, CCn1c(=N)c(C(=O)NCc2ccccc2)cc2c(=O)n3cccc(C)c3nc21 -3.31%, Cc1cccc(-c2nc(C)c(CCNC(=O)C(=O)Nc3ccccc3C#N)s2)c1 -15.1%, COC(=O)c1ccc2c(=O)n(CCCCCC(=O)NCCc3ccc(Cl)cc3)c(=O)[nH]c2c1 -14.9%, Cc1ccc(Cn2ccnc2SCC(=O)NCc2ccccc2Cl)cc1 -16.6%
